Results published in patent US20170029494A1, “Antigen Binding Constructs” (Glaxo Group Limited, priority 2011, published 2017).

T1: binding of VEGF165 to VEGF R2 (Homo sapiens, UniProt P15692)
T1 construct: host or cells: insect cells, baculovirus (VEGF)
T1 sequence (P15692 27-191 isoform P15692-4): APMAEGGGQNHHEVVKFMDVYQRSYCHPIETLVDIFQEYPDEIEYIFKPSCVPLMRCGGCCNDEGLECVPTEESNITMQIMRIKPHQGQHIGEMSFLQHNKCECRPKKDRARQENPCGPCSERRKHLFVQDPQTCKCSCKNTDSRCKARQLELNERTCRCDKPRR

T2: VEGF165 (Homo sapiens, UniProt P15692)
T2 sequence (P15692 27-191 isoform P15692-4): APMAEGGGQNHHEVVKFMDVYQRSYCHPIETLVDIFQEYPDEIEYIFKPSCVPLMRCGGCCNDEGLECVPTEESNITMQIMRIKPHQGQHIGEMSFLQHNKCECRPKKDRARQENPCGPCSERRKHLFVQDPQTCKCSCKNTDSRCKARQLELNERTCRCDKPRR


Columns and labels:
[1] = tested on: VEGF165-induced proliferation of human umbilical vein endothelial cells (HUVEC); test: Human Umbilical Cord Endothelial Cell (HUVEC) proliferation assay; assay type: cell-based; conditions: for EC50 compared to Bevacizumab (Avastin): Example 27, whole 96 well plate, words only
[2] = biological target: T1, binding of VEGF165 to VEGF R2; test: VEGF R2 receptor binding assay (MSD RBA)
[3] = biological target: T2, VEGF165; test: Biacore T100 SPR, Protein A capture, 37° C.; assay type: binding; design: made in house; host or cells: HEK293 (transient transfection)
Experimental: (§1) The run was carried out at 37° C., using HBS-EP as the running buffer.
as §1, §1, §1, §1

[4] = biological target: T2, VEGF165; test: Isothermal titration calorimetry (ITC); conditions: 25° C.; 1:1 binding model; Table 10
[5] = biological target: T2, VEGF165; test: Modified MSD assay: binding to VEGF pre-saturated with the other dAb format; design: made in house; host or cells: HEK293 (transient transfection); conditions: DMS1576 ≧3 μg/mL; anti-Vk detection; FIG. 2B
Experimental: A MSD high bind 96 well plate (MSD L11X6-3) was coated with 3 μg/mL rhVEG F165 (sourced ‘in house’ from transient transfection of HEK293 cells) in PBS (25 μl/well), covered with a plate sealer and incubated overnight at 4° C. The next day the MSD plate was washed 3×300 μl/well with Tris wash buffer and blotted over a pad of tissue to remove excess wash buffer from the wells. The MSD plate was then blocked with 3% BSA in PBS (250 μl/well) and incubated shaking (750 RPM) at room temperature for 1 hour. […] The MSD plate was washed again before the addition of DMS1576 (25 μl/well, 0-100 ng/ml) and incubated shaking (750 RPM) at room temperature for 1 hour. […] Prior to measurement of the electrochemiluminescence in a MSD Sector Imager 6000, the MSD plate was washed and 150 μL/well of 2× Read Buffer T (MSD R92TC-1) was added.
The next day the MSD plate was washed 3×300 μl/well with Tris wash buffer and blotted over a pad of tissue to remove excess wash buffer from the wells. […] Prior to measurement of the electrochemiluminescence in a MSD Sector Imager 6000, the MSD plate was washed and 150 μL/well of 2× Read Buffer T (MSD R92TC-1) was added.

[6] = Table 12A, VEGF165 32 nM to 0.03125 nM
[7] = Table 5, 1:1 model, VEGF165 64 nM to […]
[8] = Table 7, 1:1 Binding, VEGF165 75, 15, 3, 0.6 nM
[9] = Table 11A, VEGF165 16 nM to […]
[10] = Table 11B, VEGF165 128 nM to 0.03125 nM
[11] = Table 11C, VEGF165 128 nM to 0.03125 nM

| Ka [3, 6] [M⁻¹ s⁻¹] | Kd (s − 1) [3, 6] [s⁻¹] | KA M^−1 [4] [M⁻¹] | Ka (M − 1 · s − 1) [3, 9] [M − 1 · s − 1] | Kd (s − 1) [3, 9] | Molecule | EC50 compared to Bevacizumab (Avastin) [1] | also measured |
| --- | --- | --- | --- | --- | --- | --- | --- |
| 1.33e+07 | 9.13e-05 | 3.78e+07 |  |  | DMS30023: DT02-K-044-085-HingeIgG1Linker-Fc-GS(TVAAPSGS)x3 Linker-DT02-K-044-085 dAb-Fc-dAb; SEQ ID NO:26 & 54 (protein, DT02-K-044-085-HingeIgG1Linker-Fc-GS(TVAAPSGS)x3 Linker-DT02-K-044-085 Vh-Vk dAb-Fc-dAb nucleic acid sequence identified using molecular biology techniques.) DIQMTQSPSSLSASVGDRVTITCRASQWIGPELKWYQQKPGKAPKLLIYHGSILQSGVPSRFSGSGSGTDFTLTISSLQPEDFATYYCQQYMYYPHTFGQGTKVEIKRV[human IgG1 Fc with changes not shown]GSTVAAPSGSTVAAPSGSTVAAPSGSDIQMTQSPSSLSASVGDRVTITCRASQWIGPELKWYQQKPGKAPKLLIYHGSILQSGVPSRFSGSGSGTDFTLTISSLQPEDFATYYCQQYMYYPHTFGQGTKVEIKR | improved | Predicted Means for Max % Inhibition, Estimate ([1]; Table 14A, weighted mixed model analysis): 69.7258%; IC50 ([1]; Table 14B, back transformed from log 10 scale, read-out: Geometric means of IC50, Estimate): 0.598 nM; EC50 ([2]; Table 8B, second data set (VEGFR2 RBA)): 5.2 ng/mL; EC50 ([2]; Table 13A, no pre-incubation): 3.23 ng/mL |
| 1.31e+07 | 2.29e-05 | 8e+07 | 8.96E+06 | Too tight | DMS30000: C-terminal Fc fusion of K-044-085 dAb (GS(TVAAPSGS)x3 Linker) Fc-dAb; SEQ ID NO:3 & 31 (protein, C-terminal Fc fusion of K-044-085 DAB (GS(TVAAPSGS)x3 Linker) Fc-dAb nucleic acid sequence identified using molecular biology techniques.) [human IgG1 Fc and a few adjoining residues not shown]GSTVAAPSGSTVAAPSGSTVAAPSGSDIQMTQSPSSLSASVGDRVTITCRASQWIGPELKWYQQKPGKAPKLLIYHGSILQSGVPSRFSGSGSGTDFTLTISSLQPEDFATYYCQQYMYYPHTFGQGTKVEIKR | similar | binding to VEGF165 pre-saturated with Vh dAb-Fc DMS1576 [5]: bind VEGF165; Kd [3, 7]: 2 pM; ka [3, 7]: 1.44E+07; kd [3, 7]: 3.34E−05; ka [3, 8]: 2.28E+07; kd [3, 8]: 1.60E−05; Kd [3, 6]: 1.74 pM; ΔH [4]: -19500 cal/mol; ΔS (cal/mol/deg) [4]: −29.3 cal/mol/deg |
| 1.04e+07 | 0.000107 | 1.45e+07 |  |  | DMS30028: Vk dAb-Fc: DT02-K-085 dAb attached to N-terminus of IgG1 Fc by IgG1 Hinge linker; SEQ ID NO:164 (protein, N-terminal Fc fusion of K-044-085 DAB (IgG1 Hinge) amino acid sequence identified using molecular biology techniques.) DIQMTQSPSSLSASVGDRVTITCRASQWIGPELKWYQQKPGKAPKLLIYHGSILQSGVPSRFSGSGSGTDFTLTISSLQPEDFATYYCQQYMYYPHTFGQGTKVEIKRV[human IgG1 Fc with changes not shown] |  | Ka (M − 1 · s − 1) [3, 10]: 1.03E+07 M − 1 · s − 1; Kd (s − 1) [3, 10]: 6.60E−05 s − 1 |
|  |  |  | 6.76E+06 | 4.83E−05 s − 1 | N085 Fibrx4: N-terminal Fc fusion of K-044-085 dAb ((TGLDSP)x4); SEQ ID NO:166 (protein, N-terminal Fc fusion of K-044-085 DAB ((TGLDSP)x4) amino acid sequence identified using molecular biology techniques.) DIQMTQSPSSLSASVGDRVTITCRASQWIGPELKWYQQKPGKAPKLLIYHGSILQSGVPSRFSGSGSGTDFTLTISSLQPEDFATYYCQQYMYYPHTFGQGTKVEIKRTGLDSPTGLDSPTGLDSPTGLD[human IgG1 Fc and a few adjoining residues not shown] |  |  |
|  |  |  | 8.07E+06 | Too tight | N085 TVAAPS: N-terminal Fc fusion of K-044-085 dAb (TVAAPS Linker) dAb-Fc; SEQ ID NO:20 & 48, 167 (protein, N-terminal Fc fusion of K-044-085 DAB (TVAAPS Linker) dAb-Fc nucleic acid sequence identified using molecular biology techniques.) DIQMTQSPSSLSASVGDRVTITCRASQWIGPELKWYQQKPGKAPKLLIYHGSILQSGVPSRFSGSGSGTDFTLTISSLQPEDFATYYCQQYMYYPHTFGQGTKVEIKRTVAA[human IgG1 Fc and a few adjoining residues not shown] |  | Ka (M − 1 · s − 1) [3, 11]: 1.16E+07 M − 1 · s − 1; Kd (s − 1) [3, 11]: 9.08E−05 s − 1 |
|  |  |  | 7.52E+06 | Too tight | C085 Alb DOM2: C-terminal Fc fusion of K-044-085 dAb (Albumin Domain 2); SEQ ID NO:173 (protein, C-terminal Fc fusion of K-044-085 DAB (Albumin Domain 2) amino acid sequence identified using molecular biology techniques.) [human IgG1 Fc not shown]ENDEMPADLPSLAADFVESKDDIQMTQSPSSLSASVGDRVTITCRASQWIGPELKWYQQKPGKAPKLLIYHGSILQSGVPSRFSGSGSGTDFTLTISSLQPEDFATYYCQQYMYYPHTFGQGTKVEIKR |  |  |
